According to publication PMC4336329 (PLoS ONE, 2015):
In all, about 310,000 compounds went through this assay and about 14,000 (4.5%) showed an effect of 50% or more. Effects have a minus sign here. The list shows a part of the results.

Each molecule was assayed against human ether-à-go-go-related gene (hERG) potassium channel (human, UniProt Q12809) (assay: primary screen, population patch clamp on CHO cells stably expressing hERG).
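Note: peak tail current of the secondary pulse compared with the same well before compound.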

Sequence of human ether-à-go-go-related gene (hERG) potassium channel (Q12809 whole entry, looked up): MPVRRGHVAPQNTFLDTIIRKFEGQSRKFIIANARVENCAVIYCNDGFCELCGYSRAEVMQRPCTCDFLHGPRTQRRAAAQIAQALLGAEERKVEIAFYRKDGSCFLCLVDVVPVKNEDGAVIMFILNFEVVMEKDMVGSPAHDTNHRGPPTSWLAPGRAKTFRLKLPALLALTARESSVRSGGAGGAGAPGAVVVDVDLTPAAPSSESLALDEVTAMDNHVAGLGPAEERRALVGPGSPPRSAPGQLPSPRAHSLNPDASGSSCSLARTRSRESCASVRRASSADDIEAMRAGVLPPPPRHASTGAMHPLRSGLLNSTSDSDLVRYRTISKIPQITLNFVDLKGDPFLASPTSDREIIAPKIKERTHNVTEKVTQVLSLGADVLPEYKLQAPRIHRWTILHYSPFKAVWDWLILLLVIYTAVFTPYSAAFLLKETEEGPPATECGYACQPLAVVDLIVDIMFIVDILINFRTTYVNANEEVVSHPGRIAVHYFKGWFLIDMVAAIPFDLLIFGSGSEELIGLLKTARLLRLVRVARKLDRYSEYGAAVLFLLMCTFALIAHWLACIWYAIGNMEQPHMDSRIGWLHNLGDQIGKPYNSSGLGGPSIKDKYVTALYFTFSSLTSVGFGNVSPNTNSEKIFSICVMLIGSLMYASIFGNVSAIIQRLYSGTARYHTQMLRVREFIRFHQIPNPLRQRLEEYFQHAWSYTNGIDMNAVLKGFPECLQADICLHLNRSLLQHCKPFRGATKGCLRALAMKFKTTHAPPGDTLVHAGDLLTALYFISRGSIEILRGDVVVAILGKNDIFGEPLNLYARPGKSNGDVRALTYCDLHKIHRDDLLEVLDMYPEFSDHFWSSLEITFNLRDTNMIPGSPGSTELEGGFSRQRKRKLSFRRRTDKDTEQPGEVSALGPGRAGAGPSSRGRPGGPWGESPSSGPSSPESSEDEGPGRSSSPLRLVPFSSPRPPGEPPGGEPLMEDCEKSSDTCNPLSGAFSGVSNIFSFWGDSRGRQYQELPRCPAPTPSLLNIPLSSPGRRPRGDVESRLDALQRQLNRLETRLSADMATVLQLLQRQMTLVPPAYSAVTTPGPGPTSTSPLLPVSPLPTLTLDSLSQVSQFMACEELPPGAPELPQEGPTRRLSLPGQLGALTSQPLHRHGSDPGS

| Compound | hERG current change (%, negative = inhibition) at 10uM |
| --- | --- |
| O=C(CNC(=O)c1cccc(F)c1)N/N=C/c1cccc([N+](=O)[O-])c1 | -23.4% |
| CCCOc1ccc(Br)cc1CSC(=N)N.Cl | -41.7% |
| CN(Cc1ccccc1)S(=O)(=O)c1ccc(OCC(=O)NCc2cccnc2)cc1 | 0.509% |
| O=S(=O)(Nc1cc(F)ccc1F)c1cccc2nsnc12 | 11.6% |
| COC(=O)c1cc(NC(=O)c2cccc(Cl)c2)c(=O)oc1/C=C/Nc1cc(C)cc(C)c1 | 12.6% |
| Cc1nn(Cc2c(F)c(F)c(F)c(F)c2F)c(C)c1NC(=O)c1nn(C)c(C)c1Br | 1.34% |
| CN1CCN(C(=S)c2ccc(-c3cccc(Cl)c3Cl)o2)CC1 | -23.6% |
| Cc1ccc(-c2nnc(SCC(=O)NC3CCCc4ccccc43)n2N)cc1 (stereo not shown) | -31.5% |
| Cc1ccc(S(=O)(=O)N(C)Cc2ccc(C(=O)NN=C(CC(C)C)CC(C)C)cc2)cc1 | -19.9% |
| COc1cccc(C(=O)Oc2cc(C)[nH]c(=O)c2[N+](=O)[O-])c1OC | 6.93% |
| COc1ccccc1C(=O)NC(=S)Nc1ccc(Cc2ccncc2)cc1 | 15% |
| CCOC(=O)c1sc2nc(C)nc(Nc3ccccc3)c2c1C.Cl | 5.43% |
| Cc1ccc(C)c(NC(=O)Cn2nc([N+](=O)[O-])c(Br)c2C)c1 | -9.68% |
| O=C(CSc1nnc(-c2ccccc2)o1)NC1CC1 | 10.9% |
| COc1ccc2nc(NC(=O)C3CC(=O)N(c4ccccc4)C3)sc2c1 (stereo not shown) | -51.7% |
| CC1CN(C(=O)N2CCOCC2)CCN1C(=O)N1CCOCC1 (stereo not shown) | 10.2% |
| O=C(N/C(=C/c1cn(-c2ccccc2)nc1-c1ccccc1)C(=O)N1CCOCC1)c1ccc(Cl)cc1Cl | 17.7% |
| CCCC(=O)c1c(NCCO)cc(C)oc1=O | 11.7% |
| CS(=O)(=O)c1cccc(C(=O)OCC(=O)NCc2cccs2)c1 | -4.72% |
| Cc1ccc(S(=O)(=O)N(C)C)cc1NC(=O)Cn1c(CN2CCOCC2)nc2ccccc2c1=O | 7.93% |
| CS(=O)(=O)N(CC(=O)N1CCc2ccccc2C1)c1ccccc1F | -8.33% |
| O=S(=O)(c1cccc(-c2nc3ccccc3s2)c1)N1CCCC1 | 0.88% |
| O=C(NCc1ccon1)C1CCC(=O)N(CCc2ccc(Cl)cc2)C1 (stereo not shown) | -37.2% |
| CC(=O)N1CCc2cc(S(=O)(=O)N3CCc4ccccc4C3)ccc21 | 8.21% |
| Cc1ccc(OCC(=O)NNC(=O)c2ccccc2OCc2c(C)noc2C)cc1 | -16.3% |
| Cc1c(-c2ccccc2)[n+](=O)c2c(n1[O-])CCCCC2 | 4.96% |
| CCn1cc(C(=O)OCC(=O)c2cc(C)n(-c3ccccc3F)c2C)c(=O)c2ccc(C)nc21 | -12.8% |
| Cc1ccc(C(=O)NCCc2nnc3ccc(SCC(=O)N4CCCC4)nn23)cc1 | 0.507% |

| Compound | hERG current change (%, negative = inhibition) at 10uM |
| --- | --- |
| Cc1cc(-c2ccc(Cl)cc2)n2nc(N)nc2n1 | -10% |
| O=c1[nH]c2cc3c(cc2cc1CN(Cc1nnnn1CC1CCCO1)C1CCCC1)OCO3 (stereo not shown) | -4.9% |
| Cc1ccc(C(=O)NCC(=O)OCC(=O)NC2CCS(=O)(=O)C2)cc1C (stereo not shown) | 12.8% |
| COc1ccc(N/C=C(\C#N)S(=O)(=O)c2ccc(OC)cc2)cc1 | 3.33% |
| CC1=NN(C(=O)COc2cc(C)ccc2C(C)C)C(O)(c2ccccc2)C1 (stereo not shown) | -0.75% |
| CCOc1ccc(NS(=O)(=O)c2ccc(C(=O)N3CCN(C(C)=O)CC3)cc2)cc1 | 26.6% |
| CCOC(=O)C(Cc1c[nH]c2ccccc12)NC(=O)CNC(C)=O (stereo not shown) | -20.6% |
| CCOC(=O)c1c(O)cc(C)[nH]c1=O | 23.8% |
| COc1cccc(-c2noc(Cn3nc(C(=O)O)c4ccccc4c3=O)n2)c1 | -0.0317% |
| O=C(CCCCC(=O)N1CCOCCOCCOCC1)OCc1ccccc1 | 2.33% |
| CC(C)Oc1ccc(C(CC(=O)O)n2cnnn2)cc1 (stereo not shown) | 19.7% |
| CN(c1ccccc1C(N)=O)S(=O)(=O)c1ccccc1 | 11% |
| C=CCS/C(=N\n1cnc2ccccc2c1=O)N1CCCCC1 | -17.1% |
| O=C1C2CCCCC2C(=O)N1c1ccc(S(=O)(=O)Nc2ncccn2)cc1 (stereo not shown) | -1.48% |
| Cc1cccc(OCC(=O)Nc2ccc(S(=O)(=O)Nc3ccccn3)cc2)c1 | 8.15% |
| CC(C)C[C@H]1CN=C(Nc2ccccc2)N1CCCC1CCCC1 | -65.9% |
| CCn1c(=NC(=O)CSC(C)=O)sc2cc(F)ccc21 | -29.6% |
| NC(=O)CSc1oc(-c2cccs2)nc1S(=O)(=O)c1ccccc1 | -15.5% |
| COc1ccc(N2CCN(CC(O)COc3cc(C)cc(C)c3)CC2)cc1.Cl (stereo not shown) | -48.8% |
| CC12CCC(C(=O)Nc3ccccc3-n3cccc3)(CC1=O)C2(C)C (stereo not shown) | 0.661% |
| CCOc1ccc(Oc2ccccc2NC(=O)CN2C(=O)NC3(CCCC3)C2=O)cc1 | -15.8% |
| CC(C)[C@H](NC(=O)c1ccc(F)cc1)C(=O)N(C)Cc1cccs1 | -13.8% |
| C=C(C)C1CC=C(C)/C(=N/NC(=O)c2ccccc2[N+](=O)[O-])C1 (stereo not shown) | 10.3% |
| CCCc1ccc2oc(C(=O)N(C)Cc3cnccn3)c(C)c2c1 | -10.9% |
| c1ccc(-n2cnc3cc(NCc4ccco4)ccc32)cc1 | -49.8% |
| COc1cc(C(C)=O)ccc1OC(=O)C(C)N1C(=O)c2ccccc2C1=O (stereo not shown) | -13% |
| CCC1CCCCN1CCCNC(=O)c1ccc(CS(=O)(=O)Cc2ccc(Cl)cc2)o1 (stereo not shown) | -34.5% |
